Where “and” joins values, the source holds several entries; their conditions need not be identical. Equal values may be shown once. Among all 280,000 compounds or so, about 1,100 (0.39%) were called active. Inconclusive results, whose numbers are uncertain, are shown with a selection of clear calls. The call rests on the fitted dose curve; in most records, active means well fitted inhibition curve with a large enough effect; inconclusive means small, poorly fitted or top-dose-only effect, or effect the other way; inactive means flat fitted curve, though single readings scatter. Potencies of inconclusive entries are doubtful fits and often do not repeat.
What follows are molecules tested against Microtubule-associated protein tau (Homo sapiens) (UniProt P10636) (assay: qHTS for Inhibitors of Tau Fibril Formation, Fluorescence Polarization). Settings: K18 P301L tau heparin fibrillization, Alexa594 FP, 6 h; series mostly up to 57.7 µM; activity, negative = inhibition: at the top concentration.
Outline: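 Compound effects on tau fibrillization are measured by Alexa 594 fluorescence polarization (ex 555, em 632 nm). K18 P301L tau is used at 15 uM with 0.24 uM labeled tracer, and 20 uM heparin induces aggregation over 6 hr at 37 C.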
Further: nearly all actives have a fitted effect of over 55% in size.
On the % scale 0 is the no-effect control and ±100 the full control effect; potency means the concentration at half of the fitted maximal effect; tags describe the fitted curve by direction and shape.

Sequence of UniProt P10636 (P10636 whole entry, looked up): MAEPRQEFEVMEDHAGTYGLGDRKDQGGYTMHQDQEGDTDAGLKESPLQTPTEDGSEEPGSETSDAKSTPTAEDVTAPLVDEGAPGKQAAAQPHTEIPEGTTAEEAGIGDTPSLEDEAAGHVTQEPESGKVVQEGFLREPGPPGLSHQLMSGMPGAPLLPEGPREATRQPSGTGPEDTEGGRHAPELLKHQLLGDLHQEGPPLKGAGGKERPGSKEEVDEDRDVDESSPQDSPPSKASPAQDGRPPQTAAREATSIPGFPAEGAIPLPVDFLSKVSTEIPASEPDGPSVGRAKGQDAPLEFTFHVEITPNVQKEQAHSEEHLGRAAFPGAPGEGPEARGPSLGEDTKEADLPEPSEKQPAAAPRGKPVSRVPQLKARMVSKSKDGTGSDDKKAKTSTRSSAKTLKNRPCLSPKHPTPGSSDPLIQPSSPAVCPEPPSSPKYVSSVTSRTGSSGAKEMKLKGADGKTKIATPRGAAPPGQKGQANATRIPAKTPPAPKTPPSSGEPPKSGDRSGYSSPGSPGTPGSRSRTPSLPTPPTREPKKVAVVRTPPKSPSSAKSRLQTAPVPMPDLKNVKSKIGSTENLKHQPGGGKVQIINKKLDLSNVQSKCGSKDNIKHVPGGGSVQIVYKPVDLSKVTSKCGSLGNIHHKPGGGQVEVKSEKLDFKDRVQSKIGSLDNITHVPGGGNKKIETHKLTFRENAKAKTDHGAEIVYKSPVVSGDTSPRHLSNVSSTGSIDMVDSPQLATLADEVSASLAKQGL

| SMILES | activity, negative = inhibition | Potency |
| --- | --- | --- |
| COc1cc2cc(CN(Cc3nnnn3C3CCCC3)C3CCCC3)c(=O)[nH]c2cc1OC | inactive: 3.23% |  |
| N#CCSc1nc2c(c(=O)n1Cc1ccccc1)C1(CCCC1)Cc1ccccc1-2 |  | inconclusive: 31.6 µM [inhibitor, single point] |
| CNc1nc(-c2ccc3c(c2)CCN3S(=O)(=O)c2ccccc2)c(C)s1 | inactive: 9.06% |  |
| C[C@@H](NC(=O)c1nc[nH]c1C(=O)N[C@@H](Cc1ccccc1)C(=O)OCc1ccccc1)c1ccccc1 |  | inconclusive: 5.62 µM [inhibitor, single point] |
| Cc1ccc(-n2nnc(-c3nsc(NC(=O)c4ccccc4C)n3)c2C)cc1Cl | inactive: -13.6% |  |
| COc1ccc(-c2csc(NC(=O)c3ccccc3NS(=O)(=O)c3ccc(F)c(F)c3)n2)cc1 |  | inconclusive: 3.98 µM [activator, partial curve, poor fit] |
| COc1ccc(N=Nc2ccc(N)nc2N)cc1 |  | inconclusive: 20 µM [activator, partial curve] |
| C[C@H](NC(=O)c1nc[nH]c1C(=O)NC(c1ccccc1)c1ccccc1)C(=O)OC(C)(C)C |  | inconclusive: 2 µM [inhibitor, partial curve] |
| Nc1nc(Cl)cc(N2CCC(c3cc(-c4ccc(Cl)cc4)n[nH]3)CC2)n1 | inactive: -15.4% |  |
| O=C(Nc1cccc(Cl)c1)N1CCN2C(=O)c3ccccc3C12c1ccccc1 (stereo unspecified) |  | inconclusive: 17.8 µM [inhibitor, partial curve] |
| Cc1ccc(NNC(=O)Nc2ccc(Cl)cc2)nn1 |  | inconclusive: 28.2 µM [inhibitor, partial curve] |
| O=c1cc(-c2cccc(O)c2)oc2cccc(O)c12 |  | inconclusive: 28.2 µM [inhibitor, partial curve] |
| Oc1oc(-c2ccco2)nc1C=Nc1cccc(Cl)c1 | inactive: -7.46% |  |
| CC(C)(C)c1ccc(CSc2nc3c(c(=O)[nH]2)CCCC3)cc1 |  | inconclusive: 20 µM [inhibitor, partial curve] |
| NC(=O)CC[C@@H]1NC(=O)[C@@H]2CCCN2C(=O)c2cc([N+](=O)[O-])cc(I)c2NCCC[C@@H](C(=O)NC(CC(=O)O)C(N)=O)NC1=O (stereo partly specified) | inactive: 6.36% |  |
| COc1cc(-c2noc(CSc3nc(-c4ccc(F)cc4)cc(=O)[nH]3)n2)cc(OC)c1OC | inactive: -10.7% |  |
| CCCCCCCOC(=O)c1ccc(OC(=O)c2cccnc2)cc1 |  | inconclusive: 0.251 µM [activator, partial curve] |
| O=C(O)COc1ccc(Cl)cc1CO |  | inconclusive: 17.8 µM [inhibitor, single point] |
| O=C(Cn1c(=O)n(-c2ccc(F)cc2)c(=O)c2sc3ccccc3c21)NC1CCCCC1 |  | inconclusive: 20 µM [inhibitor, partial curve] |
| CCCCNc1ccc2c3c(cccc13)C(=O)N(CCCC)C2=O |  | inconclusive: 10 µM [activator, partial curve, poor fit] |
| CCOC(=O)c1ccc2c(c1)N(Cc1cccc(C(F)(F)F)c1)C(=O)c1ccccc1S2(=O)=O |  | inconclusive: 28.2 µM [inhibitor, partial curve] |

| SMILES | activity, negative = inhibition | Potency |
| --- | --- | --- |
| COCCCNS(=O)(=O)c1ccc(N2CCCCS2(=O)=O)cc1 | inactive: -0.481% |  |
| Cc1ccc(NC(=O)CN2C(=O)CSc3ccc(S(=O)(=O)N4CCCC4)cc32)c(C)c1 | inactive: 10.4% |  |
| COc1ccc(-c2[nH]c(-c3ccc(F)cc3)nc2SCC(=O)NCc2ccco2)cc1OC |  | inconclusive: 2.51 µM [activator, full curve, poor fit] |
| CCc1ccc(/C=N/NC(=O)c2cc(-c3ccncc3)nc3ccccc23)s1 |  | inconclusive: 8.91 µM [inhibitor, partial curve, poor fit] |
| O=C(Nc1ccc2nc(SCC(=O)N3CCCc4ccccc43)sc2c1)c1cccc(Cl)c1 |  | inconclusive: 11.2 µM [inhibitor, partial curve] |
| CCN(CC)S(=O)(=O)c1cccc(-c2n[nH]c(=S)n2/N=C/c2ccc(OC(F)F)cc2)c1 |  | inconclusive: 1.12 µM [activator, partial curve] |
| CC(=O)c1cccc(NC(=O)Nc2cnn(Cc3ccc(Cl)cc3Cl)c2)c1 |  | inconclusive: 39.8 µM [inhibitor, single point] |
| N#Cc1c(N)nc(SCc2ccccc2)c(C#N)c1-c1ccco1 |  | inconclusive: 8.91 µM [inhibitor, full curve, poor fit] |
| O=C(O)CCCCNCc1ccccc1 | inactive: 8.24% |  |
| Cc1nc(N)sc1-c1csc(Nc2ccccn2)n1 |  | inconclusive: 20 µM [inhibitor, partial curve] |
| Cn1c(N)c(C(=O)COC(=O)c2cc(-c3ccco3)nc3ccccc23)c(=O)n(Cc2ccccc2)c1=O |  | inconclusive: 3.16 µM [inhibitor, single point] and inconclusive: 28.2 µM [inhibitor, single point] |
| Cc1ccccc1-c1nc(CS(=O)(=O)CC(=O)Nc2cccc(C(F)(F)F)c2)c(C)o1 |  | inconclusive: 17.8 µM [inhibitor, partial curve] |
| N#CC1=C(N)SC(N)=C(C#N)C1c1ccoc1 |  | inconclusive: 20 µM [inhibitor, partial curve] |
| CC1=C(SCCC#N)S/C(=C2\SC(C)=C(SCCC#N)S2)S1 |  | inconclusive: 12.6 µM [inhibitor, partial curve] |
| CCOCCCNC(=O)Nc1cc(C(=O)NCc2ccc(C(C)C)cc2)ccc1N1CCCC1 | inactive: 5.88% |  |
| Cc1cccc(CS(=O)(=O)c2ncc(Cl)c(C(=O)Nc3nc4ccc(F)cc4s3)n2)c1 | inactive: -8.8% |  |
| COc1cc(OC)cc(C(=O)Nc2ccc(-c3nc4ccccc4o3)cc2)c1 |  | inconclusive: 10 µM [inhibitor, partial curve, poor fit] |
| Cc1ccc(S(=O)(=O)c2nnn3c2nc(NCc2cccs2)c2sccc23)cc1C |  | inconclusive: 15.8 µM [inhibitor, partial curve] |
| CCC(=O)Nc1nnc(CSCc2ccc(F)cc2)s1 |  | inconclusive: 4.47 µM [inhibitor, single point] |
| CCOC(=O)c1cc(-c2ccccc2)sc1NC(=O)C(C)Sc1nnc(N)s1 (stereo unspecified) |  | inconclusive: 10 µM [inhibitor, partial curve] |
